We go through seven substances from article PMC6441497.

Protein sequences, listed by entry. Tags and fused reporters are not part of them.
UniProt O60264: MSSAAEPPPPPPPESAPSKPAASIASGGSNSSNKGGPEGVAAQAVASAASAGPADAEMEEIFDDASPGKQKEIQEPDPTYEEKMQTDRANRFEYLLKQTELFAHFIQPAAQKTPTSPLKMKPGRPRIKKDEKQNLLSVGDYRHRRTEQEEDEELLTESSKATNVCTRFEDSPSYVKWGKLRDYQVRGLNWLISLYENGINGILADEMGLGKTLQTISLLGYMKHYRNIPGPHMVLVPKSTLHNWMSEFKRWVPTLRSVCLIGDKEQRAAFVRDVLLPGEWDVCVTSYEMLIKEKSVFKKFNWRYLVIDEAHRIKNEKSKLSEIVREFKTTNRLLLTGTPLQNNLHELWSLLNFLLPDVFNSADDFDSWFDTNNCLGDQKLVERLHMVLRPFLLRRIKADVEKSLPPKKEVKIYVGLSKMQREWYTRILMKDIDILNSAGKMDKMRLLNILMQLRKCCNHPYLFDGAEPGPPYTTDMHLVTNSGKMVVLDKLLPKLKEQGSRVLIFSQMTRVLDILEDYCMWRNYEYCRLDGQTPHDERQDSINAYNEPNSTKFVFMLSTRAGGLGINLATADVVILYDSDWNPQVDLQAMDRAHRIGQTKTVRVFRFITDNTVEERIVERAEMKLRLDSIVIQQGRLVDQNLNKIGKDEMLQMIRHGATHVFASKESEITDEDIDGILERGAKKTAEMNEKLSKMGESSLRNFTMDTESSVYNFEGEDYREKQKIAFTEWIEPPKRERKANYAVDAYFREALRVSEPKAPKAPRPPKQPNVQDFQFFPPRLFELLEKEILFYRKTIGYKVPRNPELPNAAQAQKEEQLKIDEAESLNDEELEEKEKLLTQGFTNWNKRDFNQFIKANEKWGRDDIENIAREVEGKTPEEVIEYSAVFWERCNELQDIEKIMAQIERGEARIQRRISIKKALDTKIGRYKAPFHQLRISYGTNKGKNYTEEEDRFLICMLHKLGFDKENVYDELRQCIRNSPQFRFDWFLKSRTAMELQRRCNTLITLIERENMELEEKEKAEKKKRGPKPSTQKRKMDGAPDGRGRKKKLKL
UniProt Q9ULG1: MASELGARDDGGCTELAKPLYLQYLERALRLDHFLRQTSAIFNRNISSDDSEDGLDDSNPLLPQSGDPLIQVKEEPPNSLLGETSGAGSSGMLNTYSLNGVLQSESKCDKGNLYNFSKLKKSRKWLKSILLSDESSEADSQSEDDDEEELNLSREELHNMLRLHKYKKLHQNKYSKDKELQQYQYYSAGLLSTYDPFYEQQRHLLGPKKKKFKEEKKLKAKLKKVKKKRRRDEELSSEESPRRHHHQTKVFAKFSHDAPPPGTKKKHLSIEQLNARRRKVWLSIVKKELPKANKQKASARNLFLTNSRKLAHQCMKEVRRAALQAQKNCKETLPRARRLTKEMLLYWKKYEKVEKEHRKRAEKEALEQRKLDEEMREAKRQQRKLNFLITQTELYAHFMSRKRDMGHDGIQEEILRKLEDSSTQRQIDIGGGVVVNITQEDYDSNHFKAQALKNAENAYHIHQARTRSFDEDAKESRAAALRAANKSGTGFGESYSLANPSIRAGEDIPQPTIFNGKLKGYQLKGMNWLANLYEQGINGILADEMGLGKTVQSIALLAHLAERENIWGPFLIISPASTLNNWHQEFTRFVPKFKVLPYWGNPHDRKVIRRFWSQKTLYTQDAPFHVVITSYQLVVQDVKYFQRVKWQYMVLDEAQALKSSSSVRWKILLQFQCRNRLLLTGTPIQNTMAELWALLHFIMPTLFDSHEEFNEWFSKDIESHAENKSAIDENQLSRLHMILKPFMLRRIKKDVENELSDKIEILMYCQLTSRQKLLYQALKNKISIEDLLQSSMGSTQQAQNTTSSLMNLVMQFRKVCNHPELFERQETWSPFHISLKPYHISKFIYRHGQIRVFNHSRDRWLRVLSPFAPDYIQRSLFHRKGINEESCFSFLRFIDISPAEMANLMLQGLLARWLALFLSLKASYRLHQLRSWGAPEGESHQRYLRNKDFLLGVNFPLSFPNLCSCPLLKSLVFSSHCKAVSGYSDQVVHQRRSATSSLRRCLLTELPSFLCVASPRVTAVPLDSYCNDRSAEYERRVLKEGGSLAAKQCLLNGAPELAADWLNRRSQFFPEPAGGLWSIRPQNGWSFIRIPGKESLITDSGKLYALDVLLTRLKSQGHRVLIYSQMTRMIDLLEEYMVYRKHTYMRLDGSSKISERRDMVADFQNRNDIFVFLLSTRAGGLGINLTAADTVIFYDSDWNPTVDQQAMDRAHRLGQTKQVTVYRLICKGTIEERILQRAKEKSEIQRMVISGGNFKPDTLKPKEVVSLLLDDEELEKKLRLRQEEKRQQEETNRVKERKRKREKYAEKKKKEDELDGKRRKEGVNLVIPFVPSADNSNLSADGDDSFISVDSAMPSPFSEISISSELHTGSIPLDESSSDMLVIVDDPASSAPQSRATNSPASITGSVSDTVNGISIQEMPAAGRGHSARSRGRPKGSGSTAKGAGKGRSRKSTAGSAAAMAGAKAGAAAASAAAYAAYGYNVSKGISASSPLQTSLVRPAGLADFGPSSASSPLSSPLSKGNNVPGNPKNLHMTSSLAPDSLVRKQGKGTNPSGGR
UniProt Q14839: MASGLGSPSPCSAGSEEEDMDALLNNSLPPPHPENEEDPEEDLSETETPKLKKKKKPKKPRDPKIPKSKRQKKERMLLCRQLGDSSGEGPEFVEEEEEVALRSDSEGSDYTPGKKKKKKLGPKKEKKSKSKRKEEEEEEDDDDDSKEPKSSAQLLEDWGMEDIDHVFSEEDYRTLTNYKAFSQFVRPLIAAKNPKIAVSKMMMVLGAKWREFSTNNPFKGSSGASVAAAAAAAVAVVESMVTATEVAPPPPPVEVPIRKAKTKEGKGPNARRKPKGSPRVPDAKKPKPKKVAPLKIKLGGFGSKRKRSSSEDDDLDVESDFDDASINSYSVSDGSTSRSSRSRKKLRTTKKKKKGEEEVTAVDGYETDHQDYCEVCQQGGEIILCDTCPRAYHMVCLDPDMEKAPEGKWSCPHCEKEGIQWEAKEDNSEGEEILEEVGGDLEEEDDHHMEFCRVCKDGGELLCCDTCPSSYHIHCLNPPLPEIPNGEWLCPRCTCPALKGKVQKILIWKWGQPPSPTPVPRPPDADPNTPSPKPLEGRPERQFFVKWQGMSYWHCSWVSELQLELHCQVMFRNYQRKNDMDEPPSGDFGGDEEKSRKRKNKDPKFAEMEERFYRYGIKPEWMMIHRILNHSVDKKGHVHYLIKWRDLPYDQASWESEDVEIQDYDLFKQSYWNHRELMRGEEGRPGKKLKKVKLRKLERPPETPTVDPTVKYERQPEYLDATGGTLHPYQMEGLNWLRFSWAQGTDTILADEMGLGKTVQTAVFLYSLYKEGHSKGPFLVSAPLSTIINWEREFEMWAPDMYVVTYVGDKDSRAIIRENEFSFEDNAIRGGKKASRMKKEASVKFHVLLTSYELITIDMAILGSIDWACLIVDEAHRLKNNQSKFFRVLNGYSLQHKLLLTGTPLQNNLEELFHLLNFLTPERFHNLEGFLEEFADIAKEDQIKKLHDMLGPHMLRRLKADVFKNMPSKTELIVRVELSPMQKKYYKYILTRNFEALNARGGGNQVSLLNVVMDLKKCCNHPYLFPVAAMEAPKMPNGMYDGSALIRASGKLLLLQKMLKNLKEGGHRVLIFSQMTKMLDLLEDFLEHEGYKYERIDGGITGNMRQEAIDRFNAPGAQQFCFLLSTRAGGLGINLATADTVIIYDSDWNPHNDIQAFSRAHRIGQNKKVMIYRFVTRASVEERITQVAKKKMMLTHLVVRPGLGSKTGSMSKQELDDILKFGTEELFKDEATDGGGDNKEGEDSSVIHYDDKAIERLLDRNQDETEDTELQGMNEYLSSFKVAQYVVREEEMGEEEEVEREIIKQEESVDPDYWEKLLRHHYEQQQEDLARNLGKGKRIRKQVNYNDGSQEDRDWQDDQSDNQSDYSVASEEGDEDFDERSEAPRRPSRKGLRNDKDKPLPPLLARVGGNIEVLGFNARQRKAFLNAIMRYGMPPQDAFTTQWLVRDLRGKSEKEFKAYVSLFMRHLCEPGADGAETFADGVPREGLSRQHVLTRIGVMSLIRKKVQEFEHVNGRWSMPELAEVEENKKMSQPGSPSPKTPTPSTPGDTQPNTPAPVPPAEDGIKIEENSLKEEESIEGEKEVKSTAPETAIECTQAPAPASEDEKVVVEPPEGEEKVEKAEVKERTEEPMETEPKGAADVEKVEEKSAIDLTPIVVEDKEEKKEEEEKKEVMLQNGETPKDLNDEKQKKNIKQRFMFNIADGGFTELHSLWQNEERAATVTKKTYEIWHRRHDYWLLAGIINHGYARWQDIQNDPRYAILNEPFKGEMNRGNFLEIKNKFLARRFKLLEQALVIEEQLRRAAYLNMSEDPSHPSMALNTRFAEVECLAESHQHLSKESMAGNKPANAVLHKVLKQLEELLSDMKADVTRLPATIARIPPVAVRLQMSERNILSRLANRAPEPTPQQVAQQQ

For assay [1], the target named is GFP-tagged chromatin remodeler ATPase subunit SNF2h (UniProt O60264). Put plainly: co-IP; HEK293 cells co-transfected with BZLF1 variants and GFP-tagged SNF2h or INO80; lysates treated with benzonase and DNase I; GFP-tagged remodelers precipitated with GFP-binder beads (GFP-Trap_A); BZLF1 detected by Western blot with the BZ1 antibody. (A western blot detects proteins with antibodies after separation by electrophoresis.)

Assay [2] concerns the target GFP-tagged chromatin remodeler ATPase subunit INO80 (UniProt Q9ULG1). Described as above.
Assay [3] addresses FLAG- and tandem Strep-tagged BZLF1 bZIP domain (aa 175–236), expressed from p5694 in Raji cells (EBV) (UniProt P03206). Put plainly: co-IP; Lysates of doxycycline-induced Raji cells (overnight) treated with benzonase and DNase I; Strep-tagged BZLF1 or bZIP captured on streptavidin / Strep-Tactin beads; endogenous remodelers detected by Western blot.
For assay [4], the target named is FLAG- and tandem Strep-tagged full-length BZLF1 (aa 1–245), expressed from p5693 in Raji cells (EBV) (UniProt P03206). The description is as above.

These are yes or no findings as the source states them, for the method shown. In cells and extracts the contact can be indirect. Some binding calls cover weakened binding; strength is not graded here.

With “BZLF1 aa 1–245, FLAG- and tandem Strep-tagged, expressed in HEK293 cells (from UniProt P03206 1-245)”, the binding entry in assay [1] and in assay [2] was “binds” in each case.

Consider “BZLF1 aa 175–236, FLAG- and tandem Strep-tagged, expressed in HEK293 cells (from UniProt P03206 175-236) (domain or fragment)”, for which, in assay [1], the binding result is reported as “binds”.

As to “BZLF1 aa 1–236, FLAG- and tandem Strep-tagged, expressed in HEK293 cells (from UniProt P03206 1-236) (domain or fragment)”, the binding entry in assay [1] is “binds”.

As to “BZLF1 aa 175–245, expressed in HEK293 cells (from UniProt P03206 175-245) (domain or fragment)”, the binding result in assay [1] is reported as “binds”.

As for “SNF2h, catalytic ATPase subunit of ISWI remodelers (encoded by SMARCA5), endogenous in Raji cells (from UniProt O60264 1-1052)”, the binding result in assay [3] and in assay [4] was “binds” in each case.

In the case of “CHD4, endogenous in Raji cells (from UniProt Q14839 1-1912)”, the binding result in assay [4] is listed as “no binding”.

Turning to “BZLF1 aa 149–245 (ZΔTAD), FLAG- and tandem Strep-tagged, expressed in HEK293 cells (from UniProt P03206 149-245) (domain or fragment)”, the binding result in assay [1] is listed as “binds”.
